# Data as given in the supplement of paper PMC12217912.
# This is one part of the list. The full chains were built here from the parent and the listed change. Values near 0.05 are background.
# B1: TEV protease; numbered along this chain (parent)
# chain: MGESLFKGPRDYNPISSSICHLTNESDGHTTSLYGIGFGPFIITNKHLFRRNNGTLVVQSLHGVFKVKDTTTLQQHLVDGRDMIIIRMPKDFPPFPQKLKFREPQREERICLVTTNFQTKSMSSMVSDTSCTFPSGDGIFWKHWIQTKDGQCGSPLVSTRDGFIVGIHSASNFTNTNNYFTSVPKNFMELLTNQEAQQWVSGWRLNADSVLWGGHKVFMVKPEEPFQPVKEATQL
# Variants of: B1
# Assay: raw area under fraction-flipped curve 0-4 h after induction (AUC4h, not background-subtracted), DNA-recorder readout of cleavage of the substrate (dimensionless); higher = more cleavage of the substrate by the protease variant
# Details: temperature: 34 °C; time window: 0-4 h after rhamnose induction
# 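Note: Bxb1 expression induced with 0.2% (w/v) L-rhamnose at OD600 near 0.5, cultures sampled hourly, flipped fraction per protease–substrate barcode pair counted by paired-end Illumina sequencing.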
Variant,area with substrate ECLYFQS,area with substrate EELYFQS,area with substrate EFLYFQS,area with substrate EGLYFQS,area with substrate EHLYFQS,area with substrate EILYFQS,area with substrate EKLYFQS,area with substrate EPLYFQS,area with substrate EQLYFQS,area with substrate ESLYFQS,area with substrate EVLYFQS,area with substrate EWLYFQS,area with substrate EDLYFQS,area with substrate ERLYFQS,area with substrate EYLYFQS,area with substrate EMLYFQS,area with substrate ELLYFQS,area with substrate ETLYFQS
M219I,0.107,0.113,0.112,0.0932,0.106,0.0869,0.0963,0.113,0.116,0.113,0.14,0.108,,,,,,
M219G,0.0742,0.0958,0.0831,,,0.067,0.109,0.0836,,0.0668,0.0693,0.075,0.106,0.0781,0.0803,,,
M219Y,0.103,0.0695,,,,0.0944,,,,0.109,0.0821,0.0953,,0.101,,0.105,,
V183R,0.0681,0.0921,,,,,0.0641,,,0.0606,0.046,,,0.0543,,0.0514,0.0336,
V183L,0.0705,,,,,,0.0885,0.107,0.0603,,,0.0553,,,,0.12,0.0699,
V183N,0.07,0.116,,,0.0793,0.0811,,0.104,0.0818,0.0907,0.0973,0.0975,,0.106,,,,0.134
V220N,0.127,0.145,,0.134,0.111,0.109,,,0.14,0.11,0.102,0.0955,0.137,0.137,,,0.091,
V220D,0.167,0.144,0.109,0.111,,0.113,0.152,0.15,0.187,0.137,0.111,0.0969,,0.133,,,0.112,0.113
V220C,0.149,0.119,,0.0887,,0.0081,0.103,0.16,,0.108,0.118,0.0911,0.168,0.107,0.12,,0.0977,
M188W,0.111,0.109,,0.0834,0.112,0.0958,0.104,0.0996,0.115,0.0906,0.0827,0.101,,0.115,,0.166,0.0816,
M188E,0.109,,,0.0811,0.0884,0.0993,0.116,0.0977,,,0.0325,,,0.0373,0.117,,,
R204C,0.072,0.12,0.141,0.0856,0.146,0.104,0.0421,0.172,0.134,0.123,0.119,0.121,0.135,0.128,0.118,0.129,,0.121
W199L,0.065,,,,0.0494,,0.0691,,0.0809,,0.0505,0.0561,,,,0.0529,,0.0703
W199R,0.0598,0.0672,,0.0626,,0.0595,,0.0603,0.072,0.0705,,0.0524,0.0835,,0.0678,0.063,0.0737,0.063
W199C,0.0861,0.0875,,,0.0564,,0.0772,0.0593,0.0607,0.0641,0.0601,,0.053,0.0612,,,0.0582,
S201A,0.0836,0.108,,,,0.0829,0.111,,0.11,,,0.132,,,,0.0751,0.0775,0.112
Q194T,0.0969,0.115,,0.126,0.11,0.0968,0.112,0.15,,0.108,,0.0882,,0.125,0.11,0.123,0.0776,
K221V,0.091,0.0919,,,,0.0676,0.091,0.157,0.105,0.0846,,0.0985,0.0926,0.0675,0.104,,,
S209F,0.0985,0.138,,0.0944,,0.201,0.0741,0.141,0.144,0.137,0.108,,,0.122,,,,
L191D,0.0445,0.0549,,0.0699,0.0656,0.055,,,0.0581,0.0565,0.0656,0.0511,,0.062,,,,
L191M,0.111,0.0952,0.0895,0.079,0.0979,0.0844,0.116,0.123,0.108,0.0966,0.088,0.0953,0.0966,0.0846,0.109,0.0998,0.0791,0.0542
L191G,0.0702,0.0659,,0.0519,0.0558,0.0346,,0.0455,0.0559,0.0617,0.059,,0.0569,0.0648,0.0548,0.0564,0.0488,
T176A,0.105,,,,,0.0801,,,0.0677,0.074,,0.0475,,0.0651,0.058,0.0914,0.0707,
E223H,0.089,,0.0903,0.0964,0.0941,0.0994,0.0897,0.134,,0.0863,0.0604,0.0798,0.112,0.0821,0.0881,0.104,0.0572,
L211P,0.0732,,,,,,0.0685,0.0819,,0.0793,,,0.0887,0.0683,0.0899,0.0806,0.0699,
L211H,0.12,,0.0757,,,0.117,,0.144,0.12,0.114,,0.105,0.14,,,0.106,,
E189M,0.102,0.113,,0.0769,0.102,0.0884,0.107,0.0904,0.133,0.0888,0.0626,0.0866,,0.101,,,0.0904,
N206S,0.138,,,0.0947,,0.101,,0.0528,0.117,0.0987,,0.0824,0.175,0.129,,,0.092,0.112
S182N,0.0702,0.0509,,,0.0953,0.0694,0.0812,0.0951,0.0858,0.0748,0.0863,0.0999,0.0883,0.0805,0.0705,,,
S182K,0.0737,,0.0792,0.0486,,0.0765,0.0666,,0.0745,0.0627,0.0699,,0.044,0.0759,,0.0699,0.0752,0.0854
